# Data reported in the supplement of paper PMC11417369.
# The list shows a part of the results.
# Tested on: PfAP2-HC AP2 domain (GST-tagged)
# Assay: gcPBM binding intensity (ln(normalized median fluorescence intensity)); higher = stronger DNA binding
# How it was run: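 GST-tagged P. falciparum DNA-binding domains, expressed in E. coli (about 25 μg on average), were applied for 1 h to an Agilent 4 × 180k array of primer-extended double-stranded 36-bp intergenic genomic probes plus negative controls. The binding buffer was 1× PBS with 1% milk, 0.2 mg/ml BSA, 0.5% salmon testes DNA and 0.03% Triton X-100. Bound protein was detected with Alexa488 anti-GST antibody and scanned at 488 nm. Binding intensity is the highest Masliner-normalised natural-log median intensity across replicate spots of either probe orientation.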
row,Sequence,gcPBM binding intensity (ln)
1,AGTAAATTATATATCTGTACATATATATATGTGTAT [XGTACX_site5519],9.77
2,CTCACAAATGAATACACACAAACATATATATTTATA [CACACA_site1620],10.1
3,TGGAATAATACGCGTACACACATATAAATATTAATA [CACACA_site6211],10.1
4,ACACATGAATATTGTAGTACGGCAATTAATATAATA [XGTACX_site4589],9.78
5,ATATAATGGCTAAATAGTACAATATAATATTTTTTA [XGTACX_site8922],9.5
6,AGAAAGGAAAAAACCTCACACATGCTTTTAATAGTA [CACACA_site4602],9.78
7,CTATTCTATTTTTATTGTACATATATATAATTTGAA [XGTACX_site389],9.56
8,AAAAAAATATAAATACGTACATATATATATATATAT [XGTACX_site432],10.2
9,ATTACCAACAGATCTTGTACATATTAAAGCATCTTA [XGTACX_site2361],9.51
10,TAAGTACGACTTGACACACATACACATATATATATA [CACACA_site1286],9.81
11,CAAATACACCAACACACACACACAAAAAAAAAAAAA [CACACA_site514],11.3
12,TGAAAGAATAGAATGAGTACTAATTTAAATTACACT [XGTACX_site1120],9.68
13,TTGATTTCATTTTAAGTGCATAACTAATATTATATA [GTGCAC_site9713],9.46
14,TTCTTTATATATTTTTGTACATATTTATTTTTAGAG [XGTACX_site6757],9.93
15,ATATACAAAGAAGCAGTGCATATTTTCTTATTTATG [GTGCAC_site9567],9.61
16,TCTTTGGTAATATATATGTATAAATATAAATATATA [CACACA_negctrl_site1566],9.37
17,ATATATATATATGTTAGTACATAACAAGTGTGCATA [XGTACX_site1527],10
18,ATAAAACAAGCAAATCGTACAAAAGGATAATATATA [XGTACX_site5592],10.1
19,ATGTATGGTTTATATGTTCATTTGTTCACCTATTTA [CACACA_negctrl_site1533],9.93
20,AAAAAAAAAAAAAACACACACACACCCATACCCATA [CACACA_site5577],10.5
21,TTAGGTAGAAAAAAGACACACACATTATATATATAT [CACACA_site8016],10.8
22,ATATATATTTAAGAGGGTACAAAAATTTATGAGCAT [XGTACX_site6156],9.69
23,TGTGCTTATCCTAACACACACAACATATAAGAAAAA [CACACA_site3319],9.92
24,AAAAAATAAAAAATATGTACACATTCAAAATTTTAC [XGTACX_site8479],9.71
